Laboratory results: the supplement of paper PMC9446081
About 220 (0.56%) of roughly 39,000 compounds showed activity. The list shows a part of the results.

Tested on: Escherichia coli K-12 BW25113
Experiment: relative growth (OD600 normalised to plate interquartile mean) (fraction); higher = less growth inhibition, active = 0.2 or less
Conditions: 50 µM; LB; incubation time: overnight (16-24 h)
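Note: static incubation at 37 °C against the wild-type strain, values averaged over two biological replicates.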

SMILES	relative growth
COc1ccc(NC(=O)N(C)C[C@H]2OCCCC[C@H](C)Oc3ccc(NC(=O)Nc4ccc(F)cc4)cc3C(=O)N([C@H](C)CO)C[C@@H]2C)cc1	inactive: 1.03
C[C@@H]1CN([C@H](C)CO)C(=O)c2cc(NS(=O)(=O)c3cn(C)cn3)ccc2O[C@@H](C)CCCCO[C@@H]1CN(C)S(=O)(=O)c1ccc(F)cc1	inactive: 1
C[C@@H]1CN([C@H](C)CO)C(=O)c2cccc(NS(=O)(=O)c3cn(C)cn3)c2O[C@@H]1CN(C)S(=O)(=O)c1cn(C)cn1	inactive: 0.982
C[C@@H]1CN([C@@H](C)CO)C(=O)c2cc(NS(=O)(=O)c3cccs3)ccc2O[C@@H](C)CCCCO[C@H]1CN(C)C(=O)CCC(F)(F)F	inactive: 1.04
COc1ccc(NC(=O)Nc2ccc3c(c2)C(=O)N([C@@H](C)CO)C[C@H](C)[C@H](CN(C)S(C)(=O)=O)O3)cc1	inactive: 0.991
C[C@H](CO)N1C[C@H](C)[C@H](CN(C)S(=O)(=O)c2cccs2)Oc2c(NC(=O)Nc3cccc4ccccc34)cccc2C1=O	inactive: 1.01
Cc1ccc(S(=O)(=O)N(C)C[C@@H]2Oc3cc(C#Cc4ccccc4)ccc3S(=O)(=O)N([C@H](C)CO)C[C@H]2C)cc1	inactive: 1.04
CCN(CC)S(=O)(=O)[C@H]1CCS(=O)(=O)C1	inactive: 0.989
C[C@@H]1CN([C@H](C)CO)C(=O)Cc2cc(NS(=O)(=O)c3ccc(F)cc3)ccc2O[C@@H]1CN(C)Cc1ccc(Oc2ccccc2)cc1	inactive: 0.986
COc1ccc2c3c([nH]c2c1)[C@H](CO)N(C[C@]13CCN(CC1)CC1CCCC1)C(=O)Nc1cccc(c1)F	inactive: 0.97
CC(=O)N[C@H]1C(=O)Nc2ccc(F)cc21	inactive: 1.02
Cc1noc(C)c1NC(=O)Nc1ccc2c(c1)C(=O)N([C@H](C)CO)C[C@@H](C)[C@@H](CN(C)S(=O)(=O)c1cccs1)OCCCC[C@H](C)O2	inactive: 1
Cc1noc(C)c1NC(=O)N(C)C[C@@H]1Oc2c(NC(=O)C3CC3)cccc2C(=O)N([C@H](C)CO)C[C@@H]1C	inactive: 0.955
C[C@@H]1CN([C@@H](C)CO)S(=O)(=O)c2ccc(C#CCN(C)C)cc2O[C@@H]1CN(C)Cc1ccccc1F	inactive: 1.03
CC(C)NC(=O)N(C)C[C@@H]1Oc2ccc(NC(=O)Cc3ccccc3)cc2CC(=O)N([C@@H](C)CO)C[C@@H]1C	inactive: 1.01
C[C@H](CO)N1C[C@H](C)[C@H](CN(C)S(=O)(=O)c2ccc(F)cc2)Oc2ccc(NC(=O)Cn3cnnn3)cc2C1=O	inactive: 0.995
C[C@H]1CN([C@@H](C)CO)S(=O)(=O)c2ccc(C#CCN(C)C)cc2O[C@H]1CN(C)C(=O)C1CCCCC1	inactive: 1.01
CCCC#Cc1cnc2c(c1)C(=O)N([C@H](C)CO)C[C@H](C)[C@H](CN(C)S(=O)(=O)c1cn(C)cn1)O2	inactive: 1.01
COc1ccc(S(=O)(=O)N[C@@H]2C=C[C@H](CC(=O)N3CCN(c4ccccc4)CC3)O[C@H]2CO)cc1	inactive: 1.01
COc1ccc(S(=O)(=O)Nc2ccc3c(c2)C(=O)N([C@H](C)CO)C[C@H](C)[C@H](CN(C)C(=O)CCC(F)(F)F)OCCCC[C@H](C)O3)cc1	inactive: 0.965
C[C@@H]1CCCCO[C@H](CN(C)S(=O)(=O)c2ccc(F)cc2)[C@H](C)CN([C@@H](C)CO)C(=O)c2cc(NC(=O)Nc3ccc4c(c3)OCO4)ccc2O1	inactive: 1

SMILES	relative growth
Cc1ccc(S(=O)(=O)N2C[C@H](O)COC[C@@H]3O[C@H](CC(=O)N[C@@H]4CCN(Cc5ccccc5)C4)CC[C@H]32)cc1	inactive: 1.01
O=C(C[C@H]1C[C@H]2c3cc(NC(=O)Cc4ccncc4)ccc3O[C@H]2[C@@H](CO)O1)NCc1ccc2c(c1)OCO2	inactive: 0.992
COc1ccc2c3c(n(c2c1)C)[C@H](CO)N(C[C@]13CN(C1)C(=O)c1ccncc1)C(=O)C1CCCCC1	inactive: 1.01
C[C@@H]1CCCCO[C@@H](CN(C)C(=O)Nc2cccc3ccccc23)[C@@H](C)CN([C@H](C)CO)C(=O)c2cc(NC(=O)c3ccccc3)ccc2O1	inactive: 1.01
COc1ccc(-c2cnc3c(c2)C(=O)N([C@H](C)CO)C[C@@H](C)[C@@H](CN(C)S(=O)(=O)c2ccc(OC)cc2)O3)cc1	inactive: 1.01
Cc1cccnc1[C@H](c1ccc(F)cc1)N(C)C(=O)C1CCN(CCOc2ccc(Cl)cc2Cl)CC1	inactive: 0.951
COc1ccc(NC(=O)N(C)C[C@@H]2Oc3ccc(NC(=O)Cn4cnnn4)cc3C(=O)N([C@@H](C)CO)C[C@H]2C)cc1	inactive: 1.01
Cl.NCCCC(N)C(=O)O (stereo unspecified)	inactive: 0.979
C[C@H](CO)N1C[C@H](C)[C@H](CN(C)C(=O)Nc2ccc(F)cc2)Oc2c(NC(=O)c3ccc(-c4nccs4)cc3)cccc2C1=O	inactive: 1
Cc1noc(C)c1NC(=O)N(C)C[C@@H]1Oc2ccc(NS(=O)(=O)c3ccccc3)cc2CC(=O)N([C@H](C)CO)C[C@@H]1C	inactive: 0.856
C[C@@H]1CN([C@@H](C)CO)C(=O)Cc2cc(NC(=O)c3ccncc3)ccc2O[C@@H]1CN(C)S(=O)(=O)c1ccccc1	inactive: 1.01
Cc1noc(C)c1S(=O)(=O)Nc1ccc2c(c1)C(=O)N([C@@H](C)CO)C[C@@H](C)[C@@H](CN(C)Cc1ccccc1)OCCCC[C@H](C)O2	inactive: 0.985
COc1ccc(S(=O)(=O)N(C)C[C@@H]2OCc3cn(nn3)CCCC(=O)N([C@@H](C)CO)C[C@@H]2C)cc1	inactive: 1
CCCC#Cc1ccc2c(c1)O[C@H](CN(C)C(=O)c1cnccn1)[C@H](C)CN([C@@H](C)CO)S2(=O)=O	inactive: 0.99
Nc1ccc(-c2nn[nH]n2)cc1F	inactive: 1.02
CCOC(=O)N(C)C[C@@H]1OCc2cn(nn2)CCCC(=O)N([C@@H](C)CO)C[C@@H]1C	inactive: 1.01
C[C@@H]1CN([C@@H](C)CO)C(=O)Cc2cc(NS(C)(=O)=O)ccc2O[C@@H]1CN(C)S(=O)(=O)c1cn(C)cn1	inactive: 0.987
CC(C)N1CC=C[C@@]23O[C@@H]4/C=C\CCCOC(=O)[C@@H]4[C@H]2C(=O)N(CCCO)[C@@H]3C1=O	inactive: 0.971
Cc1noc(C)c1NC(=O)Nc1ccc2c(c1)C(=O)N([C@H](C)CO)C[C@H](C)[C@@H](CN(C)S(=O)(=O)c1ccccc1)O2	inactive: 0.999
CC(=O)Nc1ccc(S(=O)(=O)CCO)cc1	inactive: 1
CN1C(=O)c2cc(NC(=O)c3cnccn3)ccc2OC[C@H]2O[C@@H](CC(=O)N[C@H]3CCN(Cc4ccccc4)C3)CC[C@H]21	inactive: 0.983

SMILES	relative growth
C[C@@H]1CN([C@H](C)CO)C(=O)c2cc(NC(=O)CCC(F)(F)F)ccc2O[C@@H](C)CCCCO[C@@H]1CN(C)S(=O)(=O)c1ccc(F)cc1	inactive: 0.982
Cc1ccc(S(=O)(=O)Nc2ccc3c(c2)CC(=O)N([C@@H](C)CO)C[C@H](C)[C@H](CN(C)S(=O)(=O)c2ccccc2)O3)cc1	inactive: 0.999
C/C=C/c1ccc2c(c1)O[C@H](CN(C)S(=O)(=O)c1ccccc1)[C@H](C)CN([C@@H](C)CO)S2(=O)=O	inactive: 1.04
Cc1noc(C)c1S(=O)(=O)Nc1ccc2c(c1)C(=O)N([C@@H](C)CO)C[C@@H](C)[C@@H](CN(C)S(=O)(=O)c1cn(C)cn1)O2	inactive: 1.02
NCC[C@H]1CC[C@@H](NC(=O)C2CCCCC2)[C@@H](CO)O1	inactive: 0.986
Nc1cnccn1	inactive: 1.01
C[C@@H]1CN([C@@H](C)CO)C(=O)c2cc(C#CCN(C)C)cnc2O[C@H]1CN(C)S(C)(=O)=O	inactive: 0.982
Cc1ccc(C=Nn2nnnc2N)s1	inactive: 0.963
COc1ccc(S(=O)(=O)Nc2ccc3c(c2)C(=O)N([C@@H](C)CO)C[C@@H](C)[C@H](CN(C)Cc2ccc4c(c2)OCO4)OCCCC[C@@H](C)O3)cc1	inactive: 1.01
C[C@@H]1CN([C@@H](C)CO)C(=O)c2cc(NS(=O)(=O)c3cccs3)ccc2O[C@H]1CN(C)S(=O)(=O)c1ccccc1	inactive: 0.993
C[C@@H]1CN([C@H](C)CO)C(=O)Cc2cc(NC(=O)Nc3ccc(C(F)(F)F)cc3)ccc2O[C@@H]1CN(C)C(=O)NC1CCCCC1	inactive: 1.02
C[C@@H]1CN([C@@H](C)CO)C(=O)c2cccc(NC(=O)CCCCCC(=O)Nc3ccccc3N)c2O[C@H]1CN(C)C(=O)Nc1ccc(C(F)(F)F)cc1	inactive: 1
COc1ccc(COC[C@]23N=C4SCCCN4[C@H](c4ccccc4O2)[C@H]3COC(=O)c2ccccc2)cc1	inactive: 1
COc1ccc(CN(C)C[C@H]2Oc3ccc(NS(=O)(=O)c4c(C)noc4C)cc3C(=O)N([C@H](C)CO)C[C@H]2C)cc1	inactive: 0.982
NC(=O)c1cccc(CN2CCOCC2)c1	inactive: 0.999
COc1ccc(NC(=O)Nc2ccc3c(c2)[C@@H]2C[C@@H](CC(=O)NCC(F)(F)F)O[C@@H](CO)[C@@H]2O3)cc1	inactive: 0.978
C[C@@H]1CN([C@@H](C)CO)C(=O)c2cc(NC(=O)Nc3ccccc3)ccc2O[C@@H](C)CCCCO[C@H]1CN(C)Cc1ccc(C(=O)O)cc1	inactive: 1.02
COc1ccc2cc1Oc1ccc(cc1)C[C@H]1c3cc(c(OC)cc3CCN1C)Oc1c(OC)c(OC)cc3c1[C@H](C2)N(C)CC3	inactive: 1.03
C[C@H]1CCCn2nncc2COCCNC1=O	inactive: 1.02
